In paper PMC4336329 (PLoS ONE, 2015):
Out of some 310,000 compounds screened, about 2,200 (0.71%) showed an effect of 50% or more. The effect is printed as a negative number. Some of the results follow.

biological target: human ether-à-go-go-related gene (hERG) potassium channel (human, UniProt Q12809); assay: primary screen, population patch clamp on CHO cells stably expressing hERG
Sequence (Q12809 whole entry, looked up): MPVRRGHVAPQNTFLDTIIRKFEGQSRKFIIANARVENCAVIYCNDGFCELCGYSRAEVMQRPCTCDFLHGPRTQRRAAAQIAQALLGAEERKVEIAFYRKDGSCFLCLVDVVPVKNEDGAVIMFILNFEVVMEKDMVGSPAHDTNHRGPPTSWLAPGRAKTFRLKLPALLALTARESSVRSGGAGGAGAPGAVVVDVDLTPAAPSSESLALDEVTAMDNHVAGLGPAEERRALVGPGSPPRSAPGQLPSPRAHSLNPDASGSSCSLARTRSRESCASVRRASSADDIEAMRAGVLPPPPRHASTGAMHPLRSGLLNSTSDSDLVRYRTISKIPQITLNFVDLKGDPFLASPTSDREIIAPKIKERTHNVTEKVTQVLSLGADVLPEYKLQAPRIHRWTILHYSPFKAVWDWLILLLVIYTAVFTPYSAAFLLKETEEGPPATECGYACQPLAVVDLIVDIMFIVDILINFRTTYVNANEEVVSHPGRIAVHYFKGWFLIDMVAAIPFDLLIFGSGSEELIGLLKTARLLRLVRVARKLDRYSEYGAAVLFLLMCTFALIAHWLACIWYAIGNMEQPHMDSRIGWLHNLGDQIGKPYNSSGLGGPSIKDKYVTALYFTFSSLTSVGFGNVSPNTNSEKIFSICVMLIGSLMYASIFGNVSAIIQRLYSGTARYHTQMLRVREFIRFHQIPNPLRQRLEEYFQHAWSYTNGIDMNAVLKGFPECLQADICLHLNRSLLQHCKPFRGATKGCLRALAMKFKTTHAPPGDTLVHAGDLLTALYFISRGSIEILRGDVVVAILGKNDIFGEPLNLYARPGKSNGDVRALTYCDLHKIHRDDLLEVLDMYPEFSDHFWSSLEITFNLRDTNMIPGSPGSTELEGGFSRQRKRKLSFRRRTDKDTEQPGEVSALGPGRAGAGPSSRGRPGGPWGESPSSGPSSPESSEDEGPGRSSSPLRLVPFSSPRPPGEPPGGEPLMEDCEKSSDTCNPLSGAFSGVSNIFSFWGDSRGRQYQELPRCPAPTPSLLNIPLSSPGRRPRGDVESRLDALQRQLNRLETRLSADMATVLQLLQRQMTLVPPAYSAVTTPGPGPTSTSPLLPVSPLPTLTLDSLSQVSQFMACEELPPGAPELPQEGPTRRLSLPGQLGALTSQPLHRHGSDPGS

| Compound | hERG current change (%, negative = inhibition) at 1uM [%] |
| --- | --- |
| CCC1CCCCN1C(=O)CSc1nnc(-c2ccc(Cl)cc2)o1 (stereo not shown) | -1.62 |
| COc1ccccc1N(Cc1cc(=O)[nH]c2ccccc12)C(=O)c1cccc([N+](=O)[O-])c1 | 12.5 |
| O=C(NC1=NCCS1)C1CCN(S(=O)(=O)c2ccc(Cl)cc2)CC1 | -4.26 |
| Cc1ccc(NC(=O)Cn2cccc2)cc1 | -12 |
| CCOc1ccc(S(=O)(=O)N2CCN(C(=O)CCC(=O)N3CCOCC3)CC2)cc1 | 7.16 |
| CC(C)c1ccc(NC(=O)C2CC3CCC2C3)cc1 (stereo not shown) | 10.9 |
| CCOC(=O)c1sc2nc(C)nc(SCC(=O)NC(C)CCc3ccccc3)c2c1C (stereo not shown) | 8.54 |
| COc1ccccc1NS(=O)(=O)c1cccc(C(=O)N2CCN(C(=O)c3ccco3)CC2)c1 | 5.46 |
| COCCn1c(C)cc(C(=O)COC(=O)c2[nH]c(C)c(C(C)=O)c2C)c1C | -5.39 |
| Br.COc1ccc(-c2csc(Nc3ccc(S(N)(=O)=O)cc3)n2)cc1 | 8.56 |
| CC1CCN(S(=O)(=O)c2ccc3c(c2)N(CC(=O)NCCCN2CC(C)CC(C)C2)C(=O)CS3)CC1 (stereo not shown) | -9.25 |
| COc1cc([N+](=O)[O-])ccc1NC(=O)CN1CCOCC1 | 13.9 |
| CCn1nc(C)c(/C=N/NC(=O)Cn2nnnc2N)c1C | 16.8 |
| CCc1ccc2nc3n[nH]c(N)c3cc2c1 | 10 |
| Cc1[nH]c2ccccc2c1N=Nc1cc(C(=O)O)cc(C(=O)O)c1 | -1.45 |
| O=C(CCn1cnc2ccccc2c1=O)Nc1ccc(S(=O)(=O)N2CCCC2)cc1 | 17.7 |
| CCOC(=O)N1CCN(C(=O)c2ccc3c(c2)N(CC)CCS3)CC1 | 1.1 |
| COC(=O)C1=C(C)NC(=S)NC1c1ccc(-c2cccc(Cl)c2)o1 (stereo not shown) | 7.5 |
| CCOC(=O)c1[nH]c(COC(=O)CCOc2ccccc2OC)c(C(=O)OCC)c1C | -0.0392 |
| c1ccc2c(c1)ncn2CCC1CCCCC1 | 0.862 |
| O=C(Nc1ccccn1)c1ccc(Cl)c(S(=O)(=O)N2CCCCCC2)c1 | -7.48 |
| CCCCCCOc1ccc(N2C(=O)CC(S/C(N)=N/N=C(\C)c3cccs3)C2=O)cc1 (stereo not shown) | 1.56 |
| Cc1cccc(NC(=O)C(Cc2ccccc2)n2cccc2)c1 (stereo not shown) | -9.38 |
| O=C1c2cccnc2C(=O)N1Cc1cccs1 | 1.3 |
| Nc1ccn(CC(=O)NCCNc2ccc([N+](=O)[O-])cn2)c(=O)n1 | 7.67 |
